{
  "source": "paper PMC12136788",
  "binders": {"B1": {"name": "chr4:15962460:15963129:-|CDS|ENSG00000137441|control|control|control (ssRNA)", "RNA": "GGGAGUUCUACAGUCCGACGAUCAAUCAAGCCCUGCAGGAGCUGAGGCGCCUUCACCAUGCGUGCCAGGGGGCCCCGGUGCUUAGGCCAUCCGUGUGCAGGGAGGCUGGACCCCAGGCCCAUAUGCAGCAGGUGACUUCCAGCCAACAGAGGAUUGAGCAUCA"}, "B2": {"name": "chr16:2586768:2586869:+|CDS|ENSG00000140992|unk|FALSE|bound_elsewhere (ssRNA)", "RNA": "GGGAGUUCUACAGUCCGACGAUCCUCCUCACACUCCCUGUCAGCCUCCGACACGGGCCUGCCCCAGAGGUCAGGCAGCAACAUAGAGCAGUACAUUCACGAUCUGGACUCGAACUCCUUUGAACUGGACUUACAGUUUUCCGACAACAGAGGAUUGAGCAUCA"}, "B3": {"name": "chr14:51255895:51255996:+|3pUTR|ENSG00000139921|msi1_unk|total|mutant (ssRNA)", "RNA": "GGGAGUUCUACAGUCCGACGAUCGUGAAUCCAUCCGAUUUACAGUAUCGUAAUAUACAAGUUUUCUUUAAAGCCCUCUCCUUCCGAAUUUAAAAUAUUGUACCAUUGAAGAGUUUGGAUGUGUAACUUGUGAUGCCUCCGAAACAACAGAGGAUUGAGCAUCA"}, "B4": {"name": "chr18:67512643:67512744:-|CDS|ENSG00000171451|unk|FALSE|bound_elsewhere (ssRNA)", "RNA": "GGGAGUUCUACAGUCCGACGAUCGCCAUGAUGGAUGUGUGGGAUGCACAUUACAAAAUGUUUUGGUUUGAUCAUCAUGGCAAUAGUCCCAUGGCCAGUAUACAGGAAGCAGAGCAAGCUGCUGAAUUUAAAAAACGAUGGACUCAACAGAGGAUUGAGCAUCA"}, "B5": {"name": "chr1:231019617:231019718:-|3pUTR|ENSG00000182118|msi1|total|mutant (ssRNA)", "RNA": "GGGAGUUCUACAGUCCGACGAUCGCAGGGAGUUCUCCGCGGAUGCAUGGUGGCAGUCUGCUUUGAUGGCAGCAGUUUCUGCUCCGGUGACCCCGAGGUCCUCAGCAGUAUCCUCCACACCUAUUUAUUGAGGUGCACCUGCUGCAACAGAGGAUUGAGCAUCA"}, "B6": {"name": "chr16:57471571:57471634:+|3pUTR|ENSG00000102978|msi1_unk|FALSE|overlapping (ssRNA)", "RNA": "GGGAGUUCUACAGUCCGACGAUCAUAGCCUUUAUUCAGGGGGCCUAUAAACCCUUCCAGUUCUUGCCCCAGGGCUGGCCUGCUAGCGCUUCAAAUUCCCAGGUGUCCCUAAUUUGAGAAGUAACCUUUUGGAAUAGCAUUAGACAACAGAGGAUUGAGCAUCA"}, "B7": {"name": "chr11:11963431:11963477:-|3pUTR|ENSG00000050165|msi1_unk|FALSE|overlapping (ssRNA)", "RNA": "GGGAGUUCUACAGUCCGACGAUCUUGACACUGUCCCUCUUUGGCAGUUGCAUUAGUAACUUUGAAAGGUAUAUGACUGAGCGUAGCAUACAGGUUAACCUGCAGAAACAGUACUUAGGUAAUUGUAGGGCGAGGAUUAUAAAUCAACAGAGGAUUGAGCAUCA"}, "B8": {"name": "chr19:5558166:5561399:-|three_prime_utr|ENSG00000223573|control|control|control (ssRNA)", "RNA": "GGGAGUUCUACAGUCCGACGAUCCCAGCUGAUGCACACUGCUUCAGACACUCCUGCUGGAGCCCCAGUCCCUGACAAGGACCUAGGACAUUUUUGCUCCUGCCCAGCCUAUCGGGAGGGAGCCUUGAGCCUUUCAGCUCUGCUCAACAGAGGAUUGAGCAUCA"}, "B9": {"name": "chr16:70398910:70399011:-|5pUTR|ENSG00000157350|unk|total|mutant (ssRNA)", "RNA": "GGGAGUUCUACAGUCCGACGAUCCACUUGCAUGGAACCCAAGUCCCCUGAAGCCCCUGUGCUCUCUGUUGUGAUUGGAGUUCCCGGGCUUCCCCGCUGCCGGGAACGAGGGGCCGCCUCAUUGUCUGCUCAUGAACCACAAGGCAACAGAGGAUUGAGCAUCA"}, "B10": {"name": "chr10:101781316:101781432:-|3pUTR|ENSG00000107833|unk|FALSE|unique (ssRNA)", "RNA": "GGGAGUUCUACAGUCCGACGAUCCCCACCUGCCUGUGAGAAUUGGAGGUUAGUGCCUGAAGCUCAGAGCUACACAUUUUUAAUAGUUUUUACAUUUUUGGAUAAAGGUUGAAAUAAAGUGGUGUGGAGUUUUUGCAGCUCUUGCAACAGAGGAUUGAGCAUCA"}, "B11": {"name": "chr11:63758435:63758536:+|3pUTR|ENSG00000133318|msi1|FALSE|unique (ssRNA)", "RNA": "GGGAGUUCUACAGUCCGACGAUCAGAAAGAAUCAAAUUCAUAGGAUAAGUCAAUACCUUAAUGGUGGUAGAGCCUUUACCUGUAGCUUGAAAGGGGAAAGAUUGGAGGUAAGAGAGAAAAUGAAAGAACACCUCUGGGUCCUUCAACAGAGGAUUGAGCAUCA"}, "B12": {"name": "chr16:3727180:3727281:-|3pUTR|ENSG00000005339|msi1|total|mutant (ssRNA)", "RNA": "GGGAGUUCUACAGUCCGACGAUCAAUGCAAGCUUAUAAUGUAUCCCGAUAACUUUGUGAUGUUUCGGGAAGAUUUUUUUCUACCGUGAACUCUGUGGGCGUCUCCCAGUAUUACCCUGGAUGACCGGAAUUGACUCCGGCGUGCAACAGAGGAUUGAGCAUCA"}, "B13": {"name": "chr3:196828865:196828966:+|3pUTR|ENSG00000180370|msi1|FALSE|bound_elsewhere (ssRNA)", "RNA": "GGGAGUUCUACAGUCCGACGAUCUGCUCCUUUUGAGUUGCUUUUGCGUUUCUCAUGCCUAGGCAAGUGUAAUAGAAAUUAUGUAGCUCCUUAUGUUGGCAAAGGAGCUCUAUAUAGUUUCACUUUGUAUAAAAGUUAGGACCACAACAGAGGAUUGAGCAUCA"}, "B14": {"name": "chr7:108149816:108149915:-|CDS_3pUTR|ENSG00000091129|msi1_unk|FALSE|overlapping (ssRNA)", "RNA": "GGGAGUUCUACAGUCCGACGAUCGUCAACGCCAUGAAUUCCUUUGUUUAAUUUUUAAGCUCUUUGCCAAUAUUCCAUUUCUCUAGAAUGUUUAUCCUAAGCACUUGUUUGUCAGCCCUCUCAUACUAUGAACAUAUGGGUAGACAACAGAGGAUUGAGCAUCA"}, "B15": {"name": "chr14:75134619:75134720:-|3pUTR|ENSG00000170348|msi1|FALSE|unique (ssRNA)", "RNA": "GGGAGUUCUACAGUCCGACGAUCAACAAGUCAAUGAGGGACUUCUUUUUAAUUUGGUAGGAUUUUGACUGGUUUUGCAACAAUAGGUCUAUUAUUAGAGUCACCUAUGACAAAAAAUAGGGGUUACCUAGAUAAUGCCAAAGUCAACAGAGGAUUGAGCAUCA"}, "B16": {"name": "chr3:97755980:97756081:+|3pUTR|ENSG00000080224|unk|FALSE|unique (ssRNA)", "RNA": "GGGAGUUCUACAGUCCGACGAUCUAAUUAAAAAUCUCUUUCCUACCUUUAGUAAUUUGUAGGAUGAACUGUAUGCAUUUAGAUAGAAAUUGCUUUUGUUAAAUUUACAUUUAAACACAUCUUCAUUCACUUAGAGAAGCCAUACAACAGAGGAUUGAGCAUCA"}, "B17": {"name": "chr1:10178627:10178729:+|CDS|ENSG00000130939|unk|FALSE|unique (ssRNA)", "RNA": "GGGAGUUCUACAGUCCGACGAUCUAAGGAAUUGUUUGAAGAAGUUAUUUCAAAGAUGCGGAAGGCAGGGAUCAAAUCCACAAUAGCAAUAGAAAAAUUUAAGCUGCUCGCCGAGAAAGUGGAGGAGAUAGUGGCCAAGAACGCCAACAGAGGAUUGAGCAUCA"}, "B18": {"name": "chr3:52836218:52836623:-|three_prime_utr|ENSG00000213533|control|control|control (ssRNA)", "RNA": "GGGAGUUCUACAGUCCGACGAUCAGCAACUGCCCAGUGAAAAGCCAAACAUGCUCUUGCCAUGUCCAUCUCCACUUCUUCGCUAGUGAGAAUUAAAGCAAGUCCGUCUCUGAGGAGGACAUCGUGUUGGGGAGGUAGAGUAUACAACAGAGGAUUGAGCAUCA"}, "B19": {"name": "chr10:68442948:68443070:-|CDS|ENSG00000138346|unk|FALSE|unique (ssRNA)", "RNA": "GGGAGUUCUACAGUCCGACGAUCCCCAAUUGUGAUGCUGCCCAAAAUAGAAGAAGAAACCCAGCAUCUGAAGCAAACACACUUAGAAUAUUUCAGCCUUUGGUGUCUAAUGUUAACCCUGGAGUCACAAUCGAAGGAUAAUAACAACAGAGGAUUGAGCAUCA"}, "B20": {"name": "ENSG00000072803:stop:overlap|stop_codon|ENSG00000072803|stop_codon|NA|stop_codon (ssRNA)", "RNA": "GGGAGUUCUACAGUCCGACGAUCCUGGAUACAGUAAACGGAAAGAAUCUUGGAAGAUGCUUGACUGCUGUCUUUUCUCAGACUAGUCUGAAAGGGAAAACCCCCAUUCAUUCUGGAUUGGUGGAUCUGAAGUACAAAAUAUUUCAACAGAGGAUUGAGCAUCA"}, "B21": {"name": "chr1:45640296:45640398:-|CDS|ENSG00000159592|unk|total|mutant (ssRNA)", "RNA": "GGGAGUUCUACAGUCCGACGAUCCUCUCCACUCUUGUACUUCACAGAAAACCCGCCCCGUGCCAAGCAACCCUCCAAGAUGCCCGUUAUCAAAAAAGUUUCCAAAGAGGAUCCUGCUGCUGCCUUCUCUGCUGCAUUCACCUCCAACAGAGGAUUGAGCAUCA"}, "B22": {"name": "chr20:1570784:1571137:-|CDS|ENSG00000101307|control|control|control (ssRNA)", "RNA": "GGGAGUUCUACAGUCCGACGAUCACAGCUGACCUGGUUGGAGAAUGGAAAUGUGUCCCGGACAGAAACAGCUUCGACCCUCAUAGAGAACAAGGAUGGCACCUACAACUGGAUGAGCUGGCUCCUGGUGAACACCUGUGCCCACAACAGAGGAUUGAGCAUCA"}},
  "note": "Some of the results follow.",
  "data": [
    {"biological_target": "T1, UNK ZnF1-6 (called full-length) (human, UniProt Q9C0B0 30-357)", "T1 sequence": "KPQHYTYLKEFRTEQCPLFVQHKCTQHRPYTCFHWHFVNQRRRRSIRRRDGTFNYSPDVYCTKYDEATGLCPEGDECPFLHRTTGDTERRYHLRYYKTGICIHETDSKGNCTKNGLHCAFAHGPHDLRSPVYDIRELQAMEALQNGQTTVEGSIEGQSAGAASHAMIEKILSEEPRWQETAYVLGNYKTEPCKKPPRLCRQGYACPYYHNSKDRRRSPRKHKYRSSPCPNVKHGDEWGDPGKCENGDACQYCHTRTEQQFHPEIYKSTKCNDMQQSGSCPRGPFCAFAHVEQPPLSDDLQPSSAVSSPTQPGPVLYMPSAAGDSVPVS", "test": "nsRBNS (natural sequence RNA bind-n-seq); RBNS binding buffer (assumed for nsRBNS): 25 mM Tris pH 7.5, 150 mM KCl, 3 mM MgCl2, 0.01% Triton X-100, 500 ug/ml BSA, 20 U/ml SUPERase-In, 4 C; UNK is unkempt and MSI1 is Musashi-1; names of the RNAs are library labels; protein concentration not given here; high values mean tight binding", "units": {"binding signal": "enrichment R"}, "values": [
      {"binder": "B1", "binding signal": 0.848},
      {"binder": "B2", "binding signal": 1.14},
      {"binder": "B3", "binding signal": 0.408},
      {"binder": "B4", "binding signal": 0.616},
      {"binder": "B5", "binding signal": 0.754},
      {"binder": "B6", "binding signal": 1.94},
      {"binder": "B7", "binding signal": 0.884},
      {"binder": "B8", "binding signal": 0.786},
      {"binder": "B9", "binding signal": 0.651},
      {"binder": "B10", "binding signal": 2.25},
      {"binder": "B11", "binding signal": 0.876},
      {"binder": "B12", "binding signal": 0.479},
      {"binder": "B13", "binding signal": 0.86},
      {"binder": "B14", "binding signal": 2.62},
      {"binder": "B15", "binding signal": 1.95},
      {"binder": "B16", "binding signal": 10.1},
      {"binder": "B17", "binding signal": 3.53},
      {"binder": "B18", "binding signal": 0.695},
      {"binder": "B19", "binding signal": 2.63},
      {"binder": "B20", "binding signal": 1.04},
      {"binder": "B21", "binding signal": 0.826},
      {"binder": "B22", "binding signal": 0.718}
    ]}
  ]
}
